# From PubChem BioAssay AID652104 (National Center for Advancing Translational Sciences (NCATS), 2013)
# Among all 410,000 compounds or so, about 7,200 (1.8%) were called active. Inconclusive means that the source gave no clear call. Such entries were picked first, then a sample of the others. The call rests on the fitted dose curve; in most records, active means well fitted activation curve with a large enough effect; inconclusive means small, poorly fitted or top-dose-only effect, or another doubt; inactive means no such curve, though single readings can be large or run the other way. Potencies of inconclusive entries are left out as doubtful fits.
# Assay: qHTS of TDP-43 Inhibitors; further: nearly all actives have a fitted effect of over 50% in size; on growth rescue (activation): % of control where 0% means no effect
# Details: TDP-43 expressing yeast growth rescue, BacTiter-Glo, 24 h; growth rescue (activation): at 46.1 µM (top of the series) unless noted
# Method in brief: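 Galactose-induced TDP-43 yeast, OD600=0.02, compound pinned; 24 hr, 30 deg C; BacTiter-Glo luminescence for growth. Inhibitors of TDP-43 toxicity read as activators.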
# Potency means the concentration at half of the fitted maximal effect; tags describe the fitted curve by direction and shape.
SMILES,Potency,growth rescue (activation)
CCOC(=O)c1c(C)[nH]c(=S)c(C#N)c1-c1ccccc1,"inconclusive [activator, partial curve]",
Oc1ccc2ccccc2c1CNc1cnc2ccccc2c1,"inconclusive [activator, single point]",
O=C(Nc1ccc(Cl)c(Cl)c1)N1CCSCC1,active: 12.6 µM,
CC(=O)NC(c1ccccc1)c1nc(-c2ccccc2C)cs1 (stereo unspecified),"inconclusive [activator, partial curve]",
Clc1ccc(C(c2nnnn2CCc2ccccc2)N2CCSCC2)cc1 (stereo unspecified),"inconclusive [activator, single point]",
CC(C)OC(=O)CCCNc1ccc([N+](=O)[O-])cc1[N+](=O)[O-],"inconclusive [activator, single point]",
CCC1(c2ccc(Cl)cc2)NC(=S)N(c2ccc(C)c(C)c2)N1 (stereo unspecified),"inconclusive [activator, single point]",
COc1ccccc1Cn1c(C2CC(=O)N(c3ccccc3OC)C2)nc2ccccc21 (stereo unspecified),,inactive: 15.7%
CCN(C(=O)CSc1ncnc2c1cnn2-c1ccccc1)C1CCS(=O)(=O)C1 (stereo unspecified),,inactive: -4.49%
CCN(C(=O)c1cc2c(=O)oc3ccccc3c2s1)c1ccccc1F,"inconclusive [activator, full curve, poor fit]",
Clc1ccc2[nH]c3c(N4CCC5(CC4)OCCO5)ncnc3c2c1,,inactive: 7.97%
CCOc1cc(S(=O)(=O)NC2CC2)c(OCC)cc1-n1cnnn1,,inactive: -10.2%
CCOC(=O)[C@]12CCCC=C1N(CCC1=CCCCC1)C(=O)[C@H](CC(=O)NCc1ccccc1)C2,active: 22.4 µM,
Cn1c(Cn2c(=O)sc3ccccc32)nnc1SCC(=O)N1CCCc2ccccc21,"inconclusive [activator, partial curve]",
COc1ccc(OC)c(NC(=O)COC(=O)/C=C/c2ccco2)c1,"inconclusive [activator, partial curve]",
Cn1cccc1CC(=O)NNC(=S)NC(=O)c1ccc(F)cc1,"inconclusive [activator, single point]",
C/C=C/Cn1c(N(C)Cc2ccccc2)nc2c1c(=O)[nH]c(=O)n2C,"inconclusive [activator, partial curve]",
COc1cccc(CNC(=O)c2nn(C)c3c2CSc2ccccc2-3)c1,active: 17.8 µM,
Cc1ccc(-c2nnc(COC(=O)c3cccs3)o2)cc1,"inconclusive [activator, partial curve]",
COc1ccccc1NC(=O)CCc1nc2ccccc2s1,"inconclusive [activator, single point]",
O=C(CN1C(=O)CCc2cc(Br)ccc21)Nc1ccc(OC(F)(F)F)cc1,,inactive: 19.6%
CCOC(=O)c1ccc(Nc2c(-c3ccc(N(C)C)cc3)nc3nc[nH]n23)cc1,"inconclusive [activator, single point]",
CCOC(=O)c1c(NC(=O)COC(=O)C2CC2C)sc(C)c1C (stereo unspecified),"inconclusive [activator, partial curve]",

SMILES,Potency,growth rescue (activation)
CCCOc1ccc(F)cc1-c1cc(C(=O)Nc2ccc(OC)cc2OC)[nH]n1,"inconclusive [activator, full curve, poor fit]",
S=C1NC2(CCCCCC2)N=C1c1ccccc1,"inconclusive [activator, partial curve]",
Cc1cc(C)cc(NC(=O)CN2C(=O)c3ccccc3Sc3ccc(C(=O)N4CCCC4)cc32)c1,"inconclusive [activator, partial curve]",
CCOC(=O)C1(C/C(C)=N/NC(N)=O)CC(C)OC1=O (stereo unspecified),,inactive: -4.06%
Cc1cc(CNC(=O)c2cccnc2Cl)c2ccccc2n1,,inactive: 1.31%
Cc1ccc(NC(=S)N2CCCC(c3ccccc3)=N2)cc1,"inconclusive [activator, partial curve]",
CCC(C(=O)Nc1cc(-c2cn3cccnc3n2)ccc1C)c1ccccc1 (stereo unspecified),,inactive: -14%
CC1C(=O)N(Cc2cn(Cc3ccco3)nn2)CCS(=O)(=O)N1Cc1ccc(-c2ccccc2)cc1 (stereo unspecified),,inactive: 25.8%
COc1ccc(CCNS(=O)(=O)c2ccccc2[N+](=O)[O-])cc1OC,,inactive: 18%
COc1ccc(NC(=O)CN(C)C(=O)c2ccc(N3CCCCC3)c([N+](=O)[O-])c2)cc1,"inconclusive [activator, partial curve]",
CC(=O)NC(C)(c1ccccc1)c1nc(-c2ccncc2)cs1 (stereo unspecified),"inconclusive [activator, partial curve, poor fit]",
Cc1nn(-c2ccc(F)cc2)c(-n2cccc2)c1C(=O)N1CCCCC1C (stereo unspecified),"inconclusive [activator, partial curve]",
CC(NC(=O)c1ccco1)c1cccc2ccccc12 (stereo unspecified),active: 20 µM,
CC(C)COc1ccc(-c2nnc(-c3ccco3)o2)cc1,active: 10 µM,
COc1ccc2c(c1)C1=NN(/C(C)=C/C(C)=O)C(c3ccc(F)cc3)C1CC2 (stereo unspecified),active: 22.4 µM,
Cc1ccc(N2C(=O)C(Cl)=C(N3CCCCCC3)C2=O)c(C)c1,"inconclusive [activator, partial curve]",
CCOC(=O)N1CCN(C(=O)CCCn2c(=S)[nH]c3ccc(Br)cc3c2=O)CC1,"inconclusive [activator, single point]",
Cc1ccccc1N1C(=O)Cc2ccccc2C1=O,,inactive: -4.13%
COc1ccc(NC(=O)CN2CCCN(Cc3ccccc3)S2(=O)=O)cc1,"inconclusive [activator, partial curve]",
CC(=O)NCCNc1nc2cc(-c3ccccc3C)sc2c(=O)n1C,"inconclusive [activator, single point]",
Cc1ccccc1N/N=C/c1ccc(C#N)cc1,"inconclusive [activator, partial curve]",
CC(C)(C)c1csc(NC(=O)c2ccc(Cl)s2)n1,"inconclusive [activator, partial curve]",
COc1ccc2oc(C(=O)NC(C)c3ccccn3)c(C)c2c1 (stereo unspecified),,inactive: 10.3%
